Data published in US11207320B2, “Compositions and methods for cancer expressing PDE3A or SLFN12” (The Broad Institute, Inc., priority 2015, dated 2021).
Further values from the same series stand in other lists.

Test system: 766 cancer cell lines
Assay: Large-scale cell-line viability measurements (766 cancer cell lines, 72 h, AUC)
Type: cell-based, human
Details: 72 hours
Method: Cell lines were treated for 72 hours with concentrations ranging from 66.4 μM-2 nM in 2-fold step dilutions.
To characterize cellular sensitivity to DNMDP further, 766 genomically characterized cancer cell lines were screened for DMNDP sensitivity at concentrations ranging from 66.4 μM to 2 nM in 2-fold dilution steps for 72 hours. From these cell lines, 22 cell lines were categorized as sensitive with a robust Z-score lower than −4, which represented multiple lineages including multiple melanoma cell lines, amongst others (Table 1).
The sensitivity of […] cancer cell lines (CCLs) was measured drawn from 23 different lineages to DNMDP. Each cell line was plated in its preferred media in white opaque 1536-plates at a density of 500 cells/well. After incubating overnight, DNMDP was added by acoustic transfer at 16 concentrations ranging from 66.4 μM-2 nM in 2-fold steps in duplicate (Labcyte Echo 555, Labcyte Inc., Sunnyvale, Calif.). After 72 hours treatment, cellular ATP levels were measured as a surrogate for viability (CELLTITERGLO®, Promega Corporation, Madison, Wis.) according to manufacturer's protocols using a ViewLux Microplate Imager (PerkinElmer, Waltham, Mass.) and normalized to background (media-only) and vehicle (DMSO)-treated control wells.
Concentration response curves were fit using nonlinear fits to 2- or 3-parameter sigmoid functions through all 16 concentrations with the low-concentration asymptote set to the DMSO-normalized value, and an optimal 8-point dose curve spanning the range of compound-sensitivity was identified. The area under the 8-point dose curve (AUC) was computed by numeric integration as a metric for sensitivity for further analysis. Similar sensitivity measurements have been obtained for a collection of 480 other compounds, enabling analyses that identify cell lines responding uniquely to DNMDP (see Broad Institute Cancer Therapeutics Response Portal, a dataset to identify comprehensively relationships between genetic and lineage features of human cancer cell lines and small-molecule sensitivities for complete list of compounds).

[1] = KIJK (HAEMATOPOIETIC AND LYMPHOID TISSUE)
[2] = KMS18 (HAEMATOPOIETIC AND LYMPHOID TISSUE)
[3] = KMS27 (HAEMATOPOIETIC AND LYMPHOID TISSUE)
[4] = M07E (HAEMATOPOIETIC AND LYMPHOID TISSUE)
[5] = MM1S (HAEMATOPOIETIC AND LYMPHOID TISSUE)
[6] = MOLT16 (HAEMATOPOIETIC AND LYMPHOID TISSUE)
[7] = MONOMAC1 (HAEMATOPOIETIC AND LYMPHOID TISSUE)
[8] = NOMO1 (HAEMATOPOIETIC AND LYMPHOID TISSUE)
[9] = NUDUL1 (HAEMATOPOIETIC AND LYMPHOID TISSUE)
[10] = OCIAML5 (HAEMATOPOIETIC AND LYMPHOID TISSUE)
[11] = OCILY3 (HAEMATOPOIETIC AND LYMPHOID TISSUE)
[12] = OCILY10 (HAEMATOPOIETIC AND LYMPHOID TISSUE)
[13] = P31FUJ (HAEMATOPOIETIC AND LYMPHOID TISSUE)
[14] = PEER (HAEMATOPOIETIC AND LYMPHOID TISSUE)
[15] = PL21 (HAEMATOPOIETIC AND LYMPHOID TISSUE)
[16] = REC1 (HAEMATOPOIETIC AND LYMPHOID TISSUE)
[17] = REH (HAEMATOPOIETIC AND LYMPHOID TISSUE)
[18] = RS411 (HAEMATOPOIETIC AND LYMPHOID TISSUE)

## CCN(CC)c1ccc(C2=NNC(=O)CC2C)cc1[N+](=O)[O-] (centres unmarked) [DNMDP, 6-(4-(diethylamino)-3-nitrophenyl)-5-methyl-4,5-dihydropyridazin-3(2H)-one]
[1]
  DNMDP AUC: 6.305
  Robust Z-score: −0.346
KMRC2 (KIDNEY)
  DNMDP AUC: 6.3393
  Robust Z-score: −0.31
KMRC3 (KIDNEY)
  DNMDP AUC: 6.3514
  Robust Z-score: −0.2973
KMRC20 (KIDNEY)
  DNMDP AUC: 6.3063
  Robust Z-score: −0.3447
[2]
  DNMDP AUC: 6.2973
  Robust Z-score: −0.3541
[3]
  DNMDP AUC: 6.2607
  Robust Z-score: −0.3925
KNS42 (CENTRAL NERVOUS SYSTEM)
  DNMDP AUC: 5.0791
  Robust Z-score: −1.633
KNS60 (CENTRAL NERVOUS SYSTEM)
  DNMDP AUC: 6.4642
  Robust Z-score: −0.1789
KPNSI9S (AUTONOMIC GANGLIA)
  DNMDP AUC: 5.6827
  Robust Z-score: −0.9992
KPNYN (AUTONOMIC GANGLIA)
  DNMDP AUC: 5.6717
  Robust Z-score: −1.011
KURAMOCHI (OVARY)
  DNMDP AUC: 6.3842
  Robust Z-score: −0.2629
L33 (PANCREAS)
  DNMDP AUC: 3.625
  Robust Z-score: −3.159
LI7 (LIVER)
  DNMDP AUC: 2.5414
  Robust Z-score: −4.296
LOVO (LARGE INTESTINE)
  DNMDP AUC: 6.4266
  Robust Z-score: −0.2184
LU65 (LUNG)
  DNMDP AUC: 6.3082
  Robust Z-score: −0.3427
[4]
  DNMDP AUC: 6.3511
  Robust Z-score: −0.2976
M059K (CENTRAL NERVOUS SYSTEM)
  DNMDP AUC: 5.3059
  Robust Z-score: −1.395
MDAMB157 (BREAST)
  DNMDP AUC: 6.5173
  Robust Z-score: −0.1232
MDAMB175VII (BREAST)
  DNMDP AUC: 6.2981
  Robust Z-score: −0.3533
MDAMB453 (BREAST)
  DNMDP AUC: 6.3691
  Robust Z-score: −0.2787
MFE296 (ENDOMETRIUM)
  DNMDP AUC: 5.5618
  Robust Z-score: −1.126
MG63 (BONE)
  DNMDP AUC: 5.3943
  Robust Z-score: −1.302
ML1 (THYROID)
  DNMDP AUC: 6.5066
  Robust Z-score: −0.1344
[5]
  DNMDP AUC: 6.3604
  Robust Z-score: −0.2879
[6]
  DNMDP AUC: 6.2966
  Robust Z-score: −0.3548
[7]
  DNMDP AUC: 2.9692
  Robust Z-score: −3.847
MPP89 (PLEURA)
  DNMDP AUC: 6.3817
  Robust Z-score: −0.2655
NCIH69 (LUNG)
  DNMDP AUC: 6.2243
  Robust Z-score: −0.4307
NCIH146 (LUNG)
  DNMDP AUC: 5.5773
  Robust Z-score: −1.11
NCIH196 (LUNG)
  DNMDP AUC: 2.5263
  Robust Z-score: −4.312
NCIH211 (LUNG)
  DNMDP AUC: 6.4058
  Robust Z-score: −0.2402
NCIH446 (LUNG)
  DNMDP AUC: 6.3331
  Robust Z-score: −0.3165
NCIH520 (LUNG)
  DNMDP AUC: 3.1351
  Robust Z-score: −3.673
NCIH647 (LUNG)
  DNMDP AUC: 3.2187
  Robust Z-score: −3.586
NCIH854 (LUNG)
  DNMDP AUC: 5.576
  Robust Z-score: −1.111
NCIH1105 (LUNG)
  DNMDP AUC: 6.2191
  Robust Z-score: −0.4362
NCIH1155 (LUNG)
  DNMDP AUC: 6.4497
  Robust Z-score: −0.1941
NCIH1339 (LUNG)
  DNMDP AUC: 6.3509
  Robust Z-score: −0.2978
NCIH1395 (LUNG)
  DNMDP AUC: 4.4473
  Robust Z-score: −2.296
NCIH1568 (LUNG)
  DNMDP AUC: 6.4489
  Robust Z-score: −0.195
NCIH1581 (LUNG)
  DNMDP AUC: 6.3747
  Robust Z-score: −0.2729
NCIH1666 (LUNG)
  DNMDP AUC: 3.6097
  Robust Z-score: −3.175
NCIH1693 (LUNG)
  DNMDP AUC: 6.3603
  Robust Z-score: −0.288
NCIH1703 (LUNG)
  DNMDP AUC: 6.5035
  Robust Z-score: −0.1377
NCIH1734 (LUNG)
  DNMDP AUC: 2.2179
  Robust Z-score: −4.636
NCIH1869 (LUNG)
  DNMDP AUC: 6.4177
  Robust Z-score: −0.2277
NCIH1915 (LUNG)
  DNMDP AUC: 5.0031
  Robust Z-score: −1.713
NCIH2081 (LUNG)
  DNMDP AUC: 5.5811
  Robust Z-score: −1.106
NCIH2106 (LUNG)
  DNMDP AUC: 6.5249
  Robust Z-score: −0.1152
NCIH2172 (LUNG)
  DNMDP AUC: 5.4245
  Robust Z-score: −1.27
NCIH2228 (LUNG)
  DNMDP AUC: 6.5304
  Robust Z-score: −0.1094
NCIH2286 (LUNG)
  DNMDP AUC: 4.7782
  Robust Z-score: −1.949
NCIN87 (STOMACH)
  DNMDP AUC: 6.24
  Robust Z-score: −0.4142
NH6 (AUTONOMIC GANGLIA)
  DNMDP AUC: 6.4066
  Robust Z-score: −0.2394
[8]
  DNMDP AUC: 6.3925
  Robust Z-score: −0.2542
[9]
  DNMDP AUC: 6.2966
  Robust Z-score: −0.3548
OAW28 (OVARY)
  DNMDP AUC: 6.2381
  Robust Z-score: −0.4162
[10]
  DNMDP AUC: 6.3062
  Robust Z-score: −0.3448
[11]
  DNMDP AUC: 6.4442
  Robust Z-score: −0.1999
[12]
  DNMDP AUC: 6.222
  Robust Z-score: −0.4331
OCUM1 (STOMACH)
  DNMDP AUC: 5.2843
  Robust Z-score: −1.417
ONS76 (CENTRAL NERVOUS SYSTEM)
  DNMDP AUC: 6.4253
  Robust Z-score: −0.2197
OSRC2 (KIDNEY)
  DNMDP AUC: 4.326
  Robust Z-score: −2.423
OUMS23 (LARGE INTESTINE)
  DNMDP AUC: 6.5015
  Robust Z-score: −0.1398
OVMANA (OVARY)
  DNMDP AUC: 6.3268
  Robust Z-score: −0.3231
OVTOKO (OVARY)
  DNMDP AUC: 6.4718
  Robust Z-score: −0.1709
[13]
  DNMDP AUC: 5.0106
  Robust Z-score: −1.705
PANC0327 (PANCREAS)
  DNMDP AUC: 6.4856
  Robust Z-score: −0.1565
PANC0504 (PANCREAS)
  DNMDP AUC: 6.3894
  Robust Z-score: −0.2574
PATU8988S (PANCREAS)
  DNMDP AUC: 6.479
  Robust Z-score: −0.1634
[14]
  DNMDP AUC: 5.4754
  Robust Z-score: −1.217
[15]
  DNMDP AUC: 6.4754
  Robust Z-score: −0.1672
RD (SOFT TISSUE)
  DNMDP AUC: 6.4567
  Robust Z-score: −0.1868
[16]
  DNMDP AUC: 6.5051
  Robust Z-score: −0.136
[17]
  DNMDP AUC: 6.3759
  Robust Z-score: −0.2716
RERFLCAD2 (LUNG)
  DNMDP AUC: 6.2783
  Robust Z-score: −0.374
RERFLCAI (LUNG)
  DNMDP AUC: 6.4571
  Robust Z-score: −0.1864
RH18 (SOFT TISSUE)
  DNMDP AUC: 5.6283
  Robust Z-score: −1.056
RH30 (SOFT TISSUE)
  DNMDP AUC: 6.3841
  Robust Z-score: −0.263
RKO (LARGE INTESTINE)
  DNMDP AUC: 6.4316
  Robust Z-score: −0.2131
RMGI (OVARY)
  DNMDP AUC: 6.3019
  Robust Z-score: −0.3493
RMUGS (OVARY)
  DNMDP AUC: 6.52
  Robust Z-score: −0.1203
[18]
  DNMDP AUC: 6.2689
  Robust Z-score: −0.3839
RT4 (URINARY TRACT)
  DNMDP AUC: 6.2742
